The source of these data is PubChem BioAssay AID493208 (National Center for Advancing Translational Sciences (NCATS), 2011).

In all, about 44,000 compounds went through this assay and about 340 (0.77%) were called active. Roughly 5% stayed inconclusive and do not appear here. The call rests on the fitted dose curve; in most records, active means well fitted inhibition curve with a large enough effect; inconclusive means small, poorly fitted or top-dose-only effect; inactive means flat fitted curve, though single readings scatter. The list shows a part of the results.
Potency means the concentration at half of the fitted maximal effect.

A short description of this assay: Acumen qHTS Assay for Inhibitors of the mTORC1 Signaling Pathway in MEF (Tsc2-/-, p53-/-) Cells: Sytravon. Further: nearly all actives have a fitted effect of over 50% in size.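 On activity change, negative = inhibition: plate controls were DMSO for no effect and rapamycin for full effect.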 Particulars: phospho-rpS6 immunofluorescence/PI, 24 h; series mostly up to 38.3 µM; activity change, negative = inhibition: at the top concentration. The method in brief:
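Readout is phospho-S6 Alexa 488 signal normalized to PI per well, reported as % active cells with thresholds set from rapamycin (7.5 nM) and DMSO controls. Cells: Tsc2-/-, p53-/- MEFs, 24 hrs compound at 37 C; PI cell number serves as viability.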
For orientation: In qHTS, concentration-response curves come from the screen itself.
With `Cc1nnc(NC(=O)c2cccn(Cc3cccc([N+](=O)[O-])c3)c2=O)s1`, the “activity change, negative = inhibition” value is inactive: -0.835%.

As to `Cc1ccc(NC(=O)N(Cc2ccc3c(c2)OCO3)C2CCN(Cc3ccccc3)CC2)cc1Cl`, the “activity change, negative = inhibition” value was inactive: 0%.

For the compound `CCOC(=O)c1ccc(NC(=O)c2cccn(Cc3ccc(C)cc3)c2=O)cc1`, the “activity change, negative = inhibition” value was inactive: -0.357%.

As for `CCN(CC)C(=O)c1ccc(NC(=O)Cn2nc(-c3ccc(C)cc3)c3ccccc3c2=O)cc1`, the “activity change, negative = inhibition” value is inactive: 7.14%.

Regarding `Cc1ccc(Cn2cccc(C(=O)Nc3nnc(C)s3)c2=O)cc1`, the “activity change, negative = inhibition” value is inactive: -9.48%.

For `Cc1ccc(-n2c(/C=C/c3cccs3)nc3ccccc3c2=O)cc1C`, the “activity change, negative = inhibition” value was inactive: 7.71%.

In the case of `COc1ccc(C)cc1NC(=O)c1cccn(Cc2cccc([N+](=O)[O-])c2)c1=O`, the “activity change, negative = inhibition” value is inactive: 2.85%.

For `CCCC12CN3CC(CCC)(CN(C1)C3c1ccccn1)C2=O` (stereo not drawn), the “activity change, negative = inhibition” value was inactive: 3.14%.

As for `COc1cccc(/C=C/c2nc3ccccc3c(=O)n2-c2ccc(Cl)cc2)c1OC`, the “activity change, negative = inhibition” value was inactive: 3.15%.

Take `O=C(Nc1ccc2c(c1)OCCO2)c1cccn(Cc2cccc(F)c2)c1=O`: the “activity change, negative = inhibition” value was inactive: -0.0434%.

Regarding `CCc1ccccc1NC(=O)c1cccn(Cc2ccccc2F)c1=O`, the “activity change, negative = inhibition” value is inactive: -1.11%.

For `CCOc1ccc2nc(NC(=O)c3cccn(Cc4ccc(Cl)cc4)c3=O)sc2c1`, the “activity change, negative = inhibition” value was inactive: -1.21%.

Turning to `COc1ccc(-c2nc(CN3C(=O)CN=C(c4ccccc4)c4cc(Cl)ccc43)c(C)o2)cc1`, the “activity change, negative = inhibition” value is inactive: -1.41%.

Consider `O=C(Nc1ccc(Cl)cc1C(=O)c1ccccc1)c1cc(Cl)cc(Cl)c1`, for which the “activity change, negative = inhibition” value is inactive: -5.13%.

As for `COc1ccc(OC)c(NC(=O)Cn2cc(C(=O)c3ccccc3)c3ccccc32)c1`, the “activity change, negative = inhibition” value was inactive: -17.7%.

Turning to `CSc1ccc(CN2CCN(C(=O)COc3ccc(C)cc3)CC2)cc1`, the “activity change, negative = inhibition” value is inactive: 2.64%.

For the compound `CCOc1ccc2nc(NC(=O)c3cccn(Cc4ccccc4)c3=O)sc2c1`, the “activity change, negative = inhibition” value is inactive: -15.3%.

Turning to `Cn1cc(/C=C/c2nc3ccccc3c(=O)n2-c2ccccc2)c2ccccc21`, the “activity change, negative = inhibition” value was inactive: 14%.

Take `O=C(Nc1ccc2c(c1)OCO2)c1cccn(Cc2cccc(F)c2)c1=O`: the “activity change, negative = inhibition” value is inactive: 2.36%.

With `COc1ccc(N2CCN(C(=O)C3CCCN(S(=O)(=O)c4ccc5c(c4)CCCN5C(C)=O)C3)CC2)cc1` (stereo not drawn), the Potency was active: 7.36 µM.

For `Nc1c(C(=O)Nc2ccc(Cl)cc2)sc2nc3c(cc12)N1CCC3CC1`, the “activity change, negative = inhibition” value was inactive: -15.4%.

With `Cc1cccc(-n2c(/C=C/c3c(C)[nH]c4ccccc34)nc3ccccc3c2=O)c1`, the “activity change, negative = inhibition” value was inactive: -9.64%.

Turning to `Nc1c(C(=O)Nc2ccc(Br)cc2F)sc2nc3c(cc12)N1CCC3CC1`, the “activity change, negative = inhibition” value is inactive: -1.59%.

Consider `COc1cc(C(c2c(O)c3ccccc3oc2=O)c2c(C)n(C)n(-c3ccccc3)c2=O)ccc1OCC(=O)O` (stereo not drawn), for which the “activity change, negative = inhibition” value is inactive: -0.0215%.

With `O=C(Nc1ccc(Cl)cc1C(=O)c1ccccc1)c1ccccc1Br`, the “activity change, negative = inhibition” value was inactive: 7.35%.

As to `Cc1c(Cl)cccc1NC(=O)CN1C(=O)C(C)N=C(c2ccccc2)c2ccccc21` (stereo not drawn), the “activity change, negative = inhibition” value is inactive: 0.055%.

Turning to `COc1ccccc1NC(=O)N(Cc1ccc2c(c1)OCO2)C1CCN(Cc2ccccc2)CC1`, the “activity change, negative = inhibition” value was inactive: -17.9%.

As for `O=c1c2ccccc2nc(/C=C/c2ccccc2)n1-c1ccccc1F`, the “activity change, negative = inhibition” value was inactive: 3.26%.

For the compound `Cc1nnc(NC(=O)c2cccn(Cc3cccc(Cl)c3)c2=O)s1`, the “activity change, negative = inhibition” value was inactive: 2.83%.

As for `COc1cc(C(c2c(O)c3ccccc3oc2=O)c2c(C)n(C)n(-c3ccccc3)c2=O)ccc1O` (stereo not drawn), the “activity change, negative = inhibition” value is inactive: 0.533%.

Turning to `O=C(Nc1ccc(Br)cc1C(=O)c1ccccc1)c1ccccc1`, the “activity change, negative = inhibition” value was inactive: -0.367%.

`O=S1(=O)N(Cc2ccccc2)CCCN1Cc1ccc(F)cc1Cl`: the “activity change, negative = inhibition” value was inactive: 3.63%.

`Cc1ccc(OCC(=O)Nc2ccc(Cl)cc2C(=O)c2ccccc2)cc1`: the “activity change, negative = inhibition” value was inactive: -16%.

For the compound `COC(=O)c1ccc(NC(=O)c2cccn(Cc3ccccc3C)c2=O)cc1`, the “activity change, negative = inhibition” value was inactive: 0.889%.

Turning to `COc1ccc(OCC(=O)N2CCN(Cc3cccc(OC)c3OC)CC2)cc1`, the “activity change, negative = inhibition” value is inactive: 4.04%.

With `Cc1cc(C)cc(OCC(=O)Nc2ccc(Cl)cc2C(=O)c2ccccc2)c1`, the “activity change, negative = inhibition” value was inactive: -7.92%.

As for `Cc1cc(NC(=O)c2cccn(Cc3ccccc3)c2=O)no1`, the “activity change, negative = inhibition” value is inactive: 0.0941%.

As to `O=C(CN1C(=O)CN=C(c2ccccc2)c2ccccc21)Nc1cccc(C(F)(F)F)c1`, the “activity change, negative = inhibition” value was inactive: -1.17%.

For `Cc1cccc2sc(NC(=O)c3cccn(Cc4ccccc4)c3=O)nc12`, the “activity change, negative = inhibition” value was inactive: -3.4%.

With `Cc1cccc(C2CC(=O)Oc3c2c(=O)oc2ccccc32)c1` (stereo not drawn), the “activity change, negative = inhibition” value was inactive: 4.43%.

Turning to `COc1ccc(CN2CCN(C(=O)COc3ccccc3)CC2)c(OC)c1`, the “activity change, negative = inhibition” value was inactive: 0.7%.

Turning to `CCN(CC)C(=O)c1ccc(NC(=O)CCn2nc(-c3ccc(Cl)cc3)c3ccccc3c2=O)cc1`, the “activity change, negative = inhibition” value was inactive: -1.46%.

As for `CCOc1ccc(CN(CCc2ccc3c(c2)OCO3)Cc2cccc(C)c2)cc1`, the “activity change, negative = inhibition” value is inactive: 0.133%.

Regarding `Cc1cc(OCC(=O)N2CCN(CCc3ccccn3)CC2)cc(C)c1Cl`, the “activity change, negative = inhibition” value was inactive: -7.36%.

As for `CCN(CC)C(=O)c1ccc(NC(=O)CCn2nc(-c3ccc(C)cc3)c3ccccc3c2=O)cc1`, the “activity change, negative = inhibition” value is inactive: 4.08%.

As to `Cc1cccc(Cn2cccc(C(=O)Nc3cc(C)on3)c2=O)c1`, the “activity change, negative = inhibition” value is inactive: -9.09%.

`COc1ccc(-c2nc(CN3C(=O)CN=C(c4ccccc4)c4ccccc43)c(C)o2)cc1`: the “activity change, negative = inhibition” value was inactive: -15.4%.

Turning to `CSc1ccc(CN2CCN(C(=O)COc3cccc(C)c3)CC2)cc1`, the “activity change, negative = inhibition” value is inactive: -1.17%.

For the compound `Cc1cccc(-n2c(/C=C/c3c[nH]c4ccccc34)nc3ccccc3c2=O)c1`, the “activity change, negative = inhibition” value is inactive: -4.64%.

In the case of `CC(C)c1ccc(OCC(=O)N2CCN(CCc3ccncc3)CC2)cc1`, the “activity change, negative = inhibition” value was inactive: -0.415%.

In the case of `COc1ccc(-n2c(/C=C\c3ccccc3F)nc3ccccc3c2=O)c(OC)c1`, the “activity change, negative = inhibition” value is inactive: 8.55%.

`Cc1cc(OCC(=O)N2CCN(CCc3ccncc3)CC2)ccc1Cl`: the “activity change, negative = inhibition” value was inactive: 1.26%.

Turning to `CSc1ccc(/C=C/c2nc3ccccc3c(=O)n2-c2cccc(Cl)c2C)cc1`, the “activity change, negative = inhibition” value is inactive: 8.85%.

For the compound `CCOc1ccc(CN(CCc2ccc3c(c2)OCO3)Cc2cc(OC)ccc2O)cc1`, the “activity change, negative = inhibition” value is inactive: -1.28%.

Consider `CCc1cccc(NC(=O)CN2C(=O)CN=C(c3ccccc3F)c3cc(Cl)ccc32)c1`, for which the “activity change, negative = inhibition” value was inactive: -11.6%.

Turning to `COc1ccc(OC)c(C(c2c(O)c3ccccc3oc2=O)c2c(C)n(C)n(-c3ccccc3)c2=O)c1` (stereo not drawn), the “activity change, negative = inhibition” value is inactive: -0.733%.

On to `O=C(Nc1ccccc1C(F)(F)F)c1cccn(Cc2ccccc2)c1=O`, for which the “activity change, negative = inhibition” value was inactive: -1.34%.

Regarding `O=C(COc1ccccc1[N+](=O)[O-])N1CCN(CCc2ccccn2)CC1`, the “activity change, negative = inhibition” value was inactive: 1.14%.

`Cc1ccccc1-n1c(/C=C/c2ccccc2F)nc2ccccc2c1=O`: the “activity change, negative = inhibition” value is inactive: -10.2%.

In the case of `N#Cc1cc2c(nc1SCC(=O)Nc1ccc(Cl)c(C(F)(F)F)c1)C1CCN2CC1`, the “activity change, negative = inhibition” value is inactive: 8.9%.

On to `COc1cccc(-n2c(/C=C/c3cccc(C)c3)nc3ccccc3c2=O)c1`, for which the “activity change, negative = inhibition” value is inactive: -6.57%.

In the case of `Cc1cccc(-n2c(CC3C(=O)Nc4ccc(C)cc43)nc3ccccc3c2=O)c1` (stereo not drawn), the “activity change, negative = inhibition” value was inactive: 3.72%.

Turning to `Cc1cccc(Cn2cccc(C(=O)Nc3nc4ccccc4s3)c2=O)c1`, the “activity change, negative = inhibition” value was inactive: -10.1%.
